# In PMC4336329 (PLoS ONE, 2015):
# Among all 310,000 compounds or so, about 14,000 (4.5%) showed an effect of 50% or more. The effect is printed as a negative number. The list shows a part of the results.
# Molecular target: human ether-à-go-go-related gene (hERG) potassium channel (human, UniProt Q12809)
# Assay: primary screen, population patch clamp on CHO cells stably expressing hERG
# 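Note: peak tail current of the secondary pulse compared with the same well before compound.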
# Chain of human ether-à-go-go-related gene (hERG) potassium channel (Q12809 whole entry, looked up): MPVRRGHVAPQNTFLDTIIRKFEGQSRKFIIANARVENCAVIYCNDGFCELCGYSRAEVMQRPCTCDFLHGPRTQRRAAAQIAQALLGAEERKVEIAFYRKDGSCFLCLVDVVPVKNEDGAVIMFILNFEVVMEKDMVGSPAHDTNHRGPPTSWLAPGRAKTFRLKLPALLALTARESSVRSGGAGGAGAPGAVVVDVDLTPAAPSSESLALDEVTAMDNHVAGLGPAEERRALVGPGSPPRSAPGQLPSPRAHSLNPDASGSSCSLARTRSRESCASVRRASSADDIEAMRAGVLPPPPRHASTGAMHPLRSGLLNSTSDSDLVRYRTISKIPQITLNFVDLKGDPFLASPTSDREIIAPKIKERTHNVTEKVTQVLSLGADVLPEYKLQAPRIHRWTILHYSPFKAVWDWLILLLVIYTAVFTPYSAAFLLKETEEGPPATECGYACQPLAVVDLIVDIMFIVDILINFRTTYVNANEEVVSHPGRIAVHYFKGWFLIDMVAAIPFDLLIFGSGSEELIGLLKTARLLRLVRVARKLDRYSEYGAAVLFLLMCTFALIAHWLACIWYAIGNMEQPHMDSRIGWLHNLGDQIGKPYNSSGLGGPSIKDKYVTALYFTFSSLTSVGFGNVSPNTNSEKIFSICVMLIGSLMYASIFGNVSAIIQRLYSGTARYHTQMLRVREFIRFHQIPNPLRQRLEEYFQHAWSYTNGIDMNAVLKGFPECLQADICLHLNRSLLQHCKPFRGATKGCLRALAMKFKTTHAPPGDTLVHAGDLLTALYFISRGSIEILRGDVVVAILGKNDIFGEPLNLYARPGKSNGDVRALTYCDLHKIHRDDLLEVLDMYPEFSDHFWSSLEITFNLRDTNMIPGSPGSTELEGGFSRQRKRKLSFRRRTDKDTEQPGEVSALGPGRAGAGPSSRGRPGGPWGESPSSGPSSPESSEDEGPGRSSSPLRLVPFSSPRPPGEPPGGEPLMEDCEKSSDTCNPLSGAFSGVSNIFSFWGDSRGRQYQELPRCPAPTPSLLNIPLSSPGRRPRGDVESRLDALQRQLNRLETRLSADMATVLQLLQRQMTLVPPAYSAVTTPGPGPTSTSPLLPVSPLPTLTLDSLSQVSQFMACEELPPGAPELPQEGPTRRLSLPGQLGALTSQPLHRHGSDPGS
row,Structure (SMILES),"hERG current change (%, negative = inhibition) at 10uM [%]"
1,O=C(OC1CCCCC1=O)c1cccc(S(=O)(=O)N2CCCCC2)c1 (centres unmarked),-14
2,C=CC(COCc1ccccc1)N(C(=O)OC(C)(C)C)S(=O)(=O)c1ccccc1Br (centres unmarked),5.94
3,CCOC(=O)N1CCC(NC(=O)CCC(=O)N2CCOc3ccc(C)cc32)CC1,2.22
4,COc1cccc(CNC(=O)CCS(=O)(=O)c2cccs2)c1,-41.1
5,COC(=O)C1CCN(C(=O)c2cc3c(=O)n4cccc(C)c4nc3n2Cc2ccccc2)CC1,13.2
6,Cc1ccc(CNC(=O)Cc2ccc(-n3c(=O)[nH]c4ccsc4c3=O)cc2)cc1,3.2
7,CC(C(=O)Nc1ccc2c(c1)OCCO2)N(C)Cc1c(F)cccc1Cl (centres unmarked),-4.03
8,COc1ccc(NC(=O)CSC2=NC(=O)CC(C)=N2)cc1,15.1
9,O=C(CNC(=S)NC(=O)c1ccc(F)cc1)c1ccccc1,5.25
10,CCC(C)Oc1ccc(C(=O)Nc2ccc(CN3CCOCC3)cc2)cc1 (centres unmarked),-27.2
11,CCN1C(=O)/C(=C\N2CCN(C(=O)c3ccco3)CC2)SC1=S,1.87
12,COc1ccc(-c2nc(CNS(=O)(=O)c3cc(OC)ccc3OC)cs2)cc1,-16.5
13,CCn1c(=O)c2c3c(sc2n2cnnc12)CCC3,20
14,Cc1cc(=O)n2cc(-c3ccccc3)nc2[nH]1,-4.94
15,Cc1ccc(S(=O)(=O)N2CCN(C(=O)CN3CCc4ccccc4C3)CC2)cc1.O=C(O)C(=O)O,-25.7
16,Cc1ccc(C2CC(c3cccc(Br)c3)n3nc(N)nc3N2)cc1 (centres unmarked),-2.47
17,Cc1nnc2ccc(-c3ccc(NC(=O)c4ccco4)cc3)nn12,-9.73
18,Nc1cc(Cl)c(N)cc1Cl,3.99
19,CSc1nsc(SCC(=O)Nc2cc(C(=O)O)ccc2C)n1,6.92
20,CCOC(=O)N1CCN(CC(=O)Nc2ccc(C)cc2)CC1,-63.2
21,O=C(COC(=O)CNC(=O)c1ccc(Cl)cc1)Nc1cccc(S(=O)(=O)N2CCCC2)c1,-33.5
22,COc1ccc([C@@H]2CC=C(C(=O)O)[C@H](c3cccc(Cl)c3)N2S(=O)(=O)c2ccc(C)cc2)cc1OC,8.67
23,O=C(c1ccc(NS(=O)(=O)c2ccc3[nH]c(=O)[nH]c3c2)cc1)N1CCN(c2ccccc2O)CC1,-0.33

row,Structure (SMILES),"hERG current change (%, negative = inhibition) at 10uM [%]"
1,O=C(CCc1nc2ccccc2s1)OCc1ccccc1,-14.1
2,COc1ccc(-c2[nH]ncc2CN2CCCO2)c(F)c1,9.1
3,COc1ccc(Nc2nc(NCc3ccco3)nc(N/N=C/c3ccc(O)cc3)n2)cc1,-45.6
4,CC(=O)c1ccccc1C(=O)N1CCCC(N2CCN(Cc3ccc4c(c3)OCO4)CC2)C1 (centres unmarked),-6.28
5,CCOC(=O)N1CCN(c2c(N3CC=C(c4ccccc4)CC3)c(=O)c2=O)CC1,-51.9
6,O=C(CC1S/C(=N/N=C/c2c[nH]c3ccccc23)NC1=O)Nc1ccccc1 (centres unmarked),6.67
7,Cc1ccc(-c2nnc(SCC(=O)Nc3sc(C)c(C)c3C#N)n2C)cc1,-54.1
8,O=C(c1ccccc1NS(=O)(=O)c1ccc(Cl)cc1)N1CCc2ccccc21,1.76
9,O=C(Nc1cc(C(F)(F)F)ccc1N1CCOCC1)c1n[nH]c(=O)c2ccccc12,8.95
10,CN1CCN(C(=O)NC2CCCCC2)CC1.O=C(O)C(=O)O,0.275
11,NC(=O)C1CCN(C(=O)/C(=C/c2ccco2)NC(=O)c2ccccc2)CC1,11.2
12,Cc1cc(C(=O)Nc2cccnc2Cl)on1,-3.33
13,Cc1ccccc1NC(=O)CCS(=O)(=O)c1ccc(Br)cc1,7.36
14,Nc1cc(=O)[nH]c(SCCOc2ccccc2)n1,11.5
15,COC(=O)c1ccc(C2C(C#N)=C(N)Oc3cc(O)ccc32)cc1 (centres unmarked),8.69
16,O=c1c2cc(Cl)ccc2nc(-c2ccc([N+](=O)[O-])cc2)n1O,6.05
17,CCn1nc(CC(=O)Nc2ccc(-n3cnnn3)c(OC)c2)c2ccccc2c1=O,4.46
18,CC(C)Oc1ccc(C(=O)OCC(=O)NC2CCCCCC2)cc1,7.83
19,COC(C)(C)CCCC(C)C/C=C/C(C)=C/C(=O)OC(C)C (centres unmarked),10.3
20,C/C(=N\NC(=O)c1ccccc1)c1nc2ccccc2n1C,-16.1
21,CCC(C(=O)NCCC(C)C)n1ccc2cc(S(=O)(=O)N3CCCCC3)ccc21 (centres unmarked),6.75
22,COc1cccc(NC(=O)CCN2C(=O)c3ccccc3S2(=O)=O)c1,-13.7
23,Nc1nc(SCC(=O)c2ccc(Oc3ccccc3)cc2)n[nH]1,-48.8

row,Structure (SMILES),"hERG current change (%, negative = inhibition) at 10uM [%]"
1,O=C(Nc1ccc(Cl)cc1)Nc1nnc(Cc2ccc([N+](=O)[O-])cc2)s1,5.7
2,O=c1[nH]cc(COCc2ccccc2)c(=O)[nH]1,5.51
3,Cc1noc(C)c1C(=O)Nc1nc2ccc(Cl)cc2s1,13.3
4,C[N+]1(CC(=O)OCCCc2ccccc2)CCCCC1.[I-],21
5,CCN1CCN(Cc2cccc(Oc3ccc(Cl)cc3)c2)CC1,-56.9
6,COc1ccc(-c2cc(=O)c(C(=O)c3ccc(C)cc3)n[nH]2)cc1,10.3
7,Cc1ccc(C(=O)N2CCN(c3ccc(NC(=O)CSc4ccc(Cl)cc4)cc3)CC2)cc1,11.4
8,COc1ccccc1C(=O)Nc1cc(-c2ccc(C)cc2)no1,10.3
9,O=C(N/N=C/C1CC=CCC1)c1ccc(Cl)cc1O (centres unmarked),0.333
10,CN(c1ccccc1)c1nc(N)c([N+](=O)[O-])c(NCc2ccco2)n1,-7.2
11,O=C(COc1ccc([N+](=O)[O-])cc1)Nc1ccc(N2CCN(C(=O)c3ccco3)CC2)cc1,6.27
12,COc1ccc(CNC(=O)C2CCN(S(=O)(=O)c3ccccc3)CC2)cc1,19.5
13,COc1ccc(OCCn2c(NC(=O)c3ccco3)nc3ccccc32)cc1,5.55
14,NP(=O)(OCC(F)(F)F)Oc1ccccc1 (centres unmarked),21.1
15,O=C(O/N=C(\c1ccccc1)c1ccccn1)c1cccc2ccccc12,-9.62
16,CC1(C)Cc2cccc(OCC(=O)NCCOc3ccccc3)c2O1,-7.43
17,CCOc1ccc(-n2cnnn2)cc1S(=O)(=O)NCc1ccccc1,-71
18,O=C(O)c1ccc(-c2nc3ccccc3s2)o1,19.4
19,CCC1=NN(C(=O)c2ccc(Br)cc2)C(O)(c2ccccc2)C1 (centres unmarked),0.256
20,Nc1ccc(C(=O)NCC2(c3ccccc3)CCCC2)cc1,-21.8
21,CCOc1cc(/C=N/NC(=O)C(=O)N2CCCC2)ccc1O,8.18
22,CC1CC(C)CN(S(=O)(=O)c2ccc(C(=O)N3CC(C)OC(C)C3)cc2)C1 (centres unmarked),3.13
23,CCc1cccc(NS(=O)(=O)c2ccc3c(c2)NC(=O)C(C)S3)c1 (centres unmarked),18.8

row,Structure (SMILES),"hERG current change (%, negative = inhibition) at 10uM [%]"
1,N#C/C(=C\c1ccccc1OCc1ccc(C(=O)O)cc1)C(=O)Nc1ccc(O)cc1,15.4
2,Cc1ccccc1N1C(=O)c2ccccc2C1Nc1cccnc1 (centres unmarked),6.57
3,c1ccc(Cc2nn3c(Cn4nnc5ccccc54)nnc3s2)cc1,-14.6
4,Cn1cccc1CC(=O)N/N=C/c1ccc(C(C)(C)C)cc1,6.27
5,CCc1ccc(/C=C/C(=O)c2cc(Br)ccc(=O)c2O)cc1,11
6,Cc1ccc(CNc2cnccn2)s1,31.7
7,CC(C)(C)c1ccc(S(=O)(=O)N2CCN(C3CCCC3)CC2)cc1,3.2
8,CCOC(=O)N1CCN(C(=O)C(C)N(c2ccccc2)S(C)(=O)=O)CC1 (centres unmarked),25.1
9,CC1CCN(S(=O)(=O)CCNC(=O)c2ccccc2)CC1,-5.73
10,O=C(O)C[C@H]1c2ccc(C(F)(F)F)cc2S(=O)(=O)N1C1CCCCC1,9.71
11,CSc1ncc(CO)n1Cc1ccccc1,34.9
12,Cc1ccc(C(=O)C2=C(O)C(=O)N(Cc3cccnc3)C2c2ccc(Br)cc2)o1 (centres unmarked),8
13,Cc1ccc(-c2cc(NC(=O)c3ccccc3[N+](=O)[O-])n[nH]2)cc1,27.8
14,COC(=O)C1Cc2c([nH]c3ccccc23)CN1C(C)=O (centres unmarked),15.6
15,COc1cc(OC)nc(NC(C)=O)n1,5.3
16,Cc1ccc(NC(=O)c2ccc(COc3ccccc3)o2)nc1,-20.4
17,CCCCNc1nc(Cl)nc(Nc2ccc(C)cc2)n1,9.58
18,CN(C)c1cc(NC(=O)CN2CCCC2)c2ccccc2n1.O=C(O)C(=O)O,-10.3
19,O=C(Cn1c2c(c(-c3ccccc3Cl)cc1=O)CCC2)N1CCC2(CC1)OCCO2,0.878
20,CCOC(=O)N1CCC(NC(=O)c2ccc3c(c2)sc2nc(-c4ccccc4)cn23)CC1,-17.5
